{
  "source": "paper PMC7819943",
  "about": "“Rice protein-binding microarrays: a tool to detect cis-acting elements near promoter regions in rice”",
  "note": "The list shows a part of the results.",
  "data": [
    {"molecular_target": "T1, OsWOX13 (Oryza sativa, UniProt Q5QMM3 1-267)", "T1 sequence": "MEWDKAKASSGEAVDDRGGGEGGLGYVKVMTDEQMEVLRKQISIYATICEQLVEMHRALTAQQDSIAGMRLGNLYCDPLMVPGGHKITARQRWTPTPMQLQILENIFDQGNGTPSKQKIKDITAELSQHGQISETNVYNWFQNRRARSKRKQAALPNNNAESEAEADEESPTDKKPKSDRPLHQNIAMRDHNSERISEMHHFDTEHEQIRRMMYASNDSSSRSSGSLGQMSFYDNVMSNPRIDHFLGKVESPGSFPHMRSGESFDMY", "assay": "protein-binding microarray (RPBM); PBS, 2% BSA, 51.3 ng/ul salmon testes DNA, 50 uM zinc acetate, 200 nM TF, 25 C, 1 h; high values mean tight binding", "conditions": "protein: recombinant; tags: N-terminal polyhistidine and DsRed monomer fusion (pET32a); label: CyDye5-dUTP incorporated in the synthesized complementary strand; 3' TTTTT single-stranded linker to array surface; dsDNA, one strand shown", "method_in_brief": "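In PBS with 2% BSA, salmon testes DNA and 50 µM zinc acetate, 200 nM protein was incubated on a custom Agilent array at 25 °C for 1 h and then washed off. The array had been made double-stranded by primer extension with Cy5-dUTP and blocked with 2% BSA. The proteins were transcription factors fused N-terminally to polyhistidine and DsRed, expressed in E. coli BL21-CodonPlus and purified on Ni–NTA. The binding signal is per-feature fluorescence intensity (arbitrary units) from an Axon 4000B scanner.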", "values": [
      {"sequence": "CTTGATTATGAGCCCATGACTCTGGCCTTTGTATAGCCCACGGAGTCACCTAGTGCAG", "binding signal": "41600 fluorescence intensity (a.u.)"},
      {"sequence": "CTACTAATTGTTTTCGGTTTAAACAAATCAAAATTAGCTTCGGAGTCACCTAGTGCAG", "binding signal": "41000 fluorescence intensity (a.u.)"},
      {"sequence": "ATTGTGATGAGGATAATGGCAGTGGGAGGTGGGTATCCCTCGGAGTCACCTAGTGCAG", "binding signal": "9560 fluorescence intensity (a.u.)"},
      {"sequence": "TTGATAGATTGATCGTTAGTGCTTTTGTCCAATTTGTTCACGGAGTCACCTAGTGCAG", "binding signal": "64200 fluorescence intensity (a.u.)"},
      {"sequence": "TTCAAAGACATTCCCAATCAACATAGTTCAGGTTTCAGAACGGAGTCACCTAGTGCAG", "binding signal": "3720 fluorescence intensity (a.u.)"},
      {"sequence": "CAAGCTGTCTAATTAAAAGGGTTTCACAACATTTTGAATGCGGAGTCACCTAGTGCAG", "binding signal": "4100 fluorescence intensity (a.u.)"},
      {"sequence": "ATTTTCTTCTTGCTAATTGACTTCCATTTTGTTCGTTGGTCGGAGTCACCTAGTGCAG", "binding signal": "9530 fluorescence intensity (a.u.)"},
      {"sequence": "CATAAATGAATAATTAGCAGTACAAATCGAGAACTATATGCGGAGTCACCTAGTGCAG", "binding signal": "28400 fluorescence intensity (a.u.)"},
      {"sequence": "GAATAATTTTGTTTAAGATTTTACCGGAATCAATAAAACCCGGAGTCACCTAGTGCAG", "binding signal": "14800 fluorescence intensity (a.u.)"},
      {"sequence": "TGAGATTCCACCAATTAATCAACAATCCAACAAACCAATCCGGAGTCACCTAGTGCAG", "binding signal": "10500 fluorescence intensity (a.u.)"},
      {"sequence": "GAATCGAAATCAGAGTGGTGTCAATCATGAGGACATGGTACGGAGTCACCTAGTGCAG", "binding signal": "3980 fluorescence intensity (a.u.)"},
      {"sequence": "TCCGATTTATTTGTCAAAATTGAGCGCTGTTTCGTTAGTTCGGAGTCACCTAGTGCAG", "binding signal": "6170 fluorescence intensity (a.u.)"},
      {"sequence": "ATTTAAATCATCATCTATAGTCAATCTAATAGCTCACTCACGGAGTCACCTAGTGCAG", "binding signal": "8910 fluorescence intensity (a.u.)"},
      {"sequence": "ACATGTTTTATCAATTAGTAGTATGGGCATATTACTAGTGCGGAGTCACCTAGTGCAG", "binding signal": "17800 fluorescence intensity (a.u.)"},
      {"sequence": "TGTAATTACAGGTGAAAACAGCCAGAAAGGAAATGAAAGCCGGAGTCACCTAGTGCAG", "binding signal": "9010 fluorescence intensity (a.u.)"},
      {"sequence": "ACCACTAATAATTAATCAGTTCACAGAAATGTTCCAGGAGCGGAGTCACCTAGTGCAG", "binding signal": "15400 fluorescence intensity (a.u.)"},
      {"sequence": "GAAGTCTTGTCGTAATTATGTGATATTTGTTGGCAGGTAACGGAGTCACCTAGTGCAG", "binding signal": "4450 fluorescence intensity (a.u.)"},
      {"sequence": "CTCGATTGCCGATTAATTAGTTGACCTCTTCGCTTATCCTCGGAGTCACCTAGTGCAG", "binding signal": "27800 fluorescence intensity (a.u.)"},
      {"sequence": "TACAAACAGAATGATTTCATAGTAGTAGTGCAACTTCCTTCGGAGTCACCTAGTGCAG", "binding signal": "3610 fluorescence intensity (a.u.)"},
      {"sequence": "TGATTAATTGAGAACCATTATATCATTATCATACAAACTTCGGAGTCACCTAGTGCAG", "binding signal": "37800 fluorescence intensity (a.u.)"},
      {"sequence": "TGCCTCCCTTCCAATCTTGGCTAATCAGCTAATACCAACTCGGAGTCACCTAGTGCAG", "binding signal": "3850 fluorescence intensity (a.u.)"},
      {"sequence": "AACACATGATTAATTAAGTATTAACTATAAAGAACTTGAACGGAGTCACCTAGTGCAG", "binding signal": "19100 fluorescence intensity (a.u.)"},
      {"sequence": "ATTATTTAATTGCTCTTATTTTAATCAGAGAGATCGTTCTCGGAGTCACCTAGTGCAG", "binding signal": "24800 fluorescence intensity (a.u.)"},
      {"sequence": "GCGATGCTCAAGTTGATTTGCTCAATCTCACAAGGAAGCACGGAGTCACCTAGTGCAG", "binding signal": "4900 fluorescence intensity (a.u.)"},
      {"sequence": "AGCCAAATAATTCTCAATCACTCCTCCCCGATCCAATCCACGGAGTCACCTAGTGCAG", "binding signal": "10300 fluorescence intensity (a.u.)"},
      {"sequence": "AGTTGTGGTGATTTAGGACCTAAATGACATATCATGATAACGGAGTCACCTAGTGCAG", "binding signal": "15100 fluorescence intensity (a.u.)"},
      {"sequence": "GACAAATTTAGTATTCTCTGAAATTTCACCACACTTTCCACGGAGTCACCTAGTGCAG", "binding signal": "6090 fluorescence intensity (a.u.)"},
      {"sequence": "TCATTACCTGACTGTAATTACTTTGAGAGCTCACTAGAGACGGAGTCACCTAGTGCAG", "binding signal": "11500 fluorescence intensity (a.u.)"},
      {"sequence": "GTAAATTAATTAATATGGCACCCGTGTTCTGTTTTAGTGACGGAGTCACCTAGTGCAG", "binding signal": "27900 fluorescence intensity (a.u.)"},
      {"sequence": "TACTAATTACTACTAACCGTTAAAAGTAGCCGCCGGTTAACGGAGTCACCTAGTGCAG", "binding signal": "17800 fluorescence intensity (a.u.)"},
      {"sequence": "GCTCCAATTCATCTATAGTCAATCTAATAGCTCATTCATACGGAGTCACCTAGTGCAG", "binding signal": "3580 fluorescence intensity (a.u.)"},
      {"sequence": "ATTTAATTAAGTTTATAAACAAATATAGTAACATTTTCAACGGAGTCACCTAGTGCAG", "binding signal": "18700 fluorescence intensity (a.u.)"},
      {"sequence": "TATATTCAATGTTAAATTTAATTAAACTAATATAGTATTGCGGAGTCACCTAGTGCAG", "binding signal": "5860 fluorescence intensity (a.u.)"},
      {"sequence": "TTTGACAAATTTGACAACTCCTCTAGCTCCCACTGCTACTCGGAGTCACCTAGTGCAG", "binding signal": "38200 fluorescence intensity (a.u.)"},
      {"sequence": "GCTGACAAGCCACAATCACTAGTAAATACGCATTGACGATCGGAGTCACCTAGTGCAG", "binding signal": "4720 fluorescence intensity (a.u.)"},
      {"sequence": "GTAAGCAAATTAACTCAAGAAAACTTTAAAAGGGTTGTTGCGGAGTCACCTAGTGCAG", "binding signal": "7820 fluorescence intensity (a.u.)"},
      {"sequence": "TTGATTGAAGTATAGATGGCCTGGATGGAAGCAAATTTGCCGGAGTCACCTAGTGCAG", "binding signal": "37500 fluorescence intensity (a.u.)"},
      {"sequence": "ACGAATTTTAGATTGAGTTATTTGAGAGCTAAATTTTCAACGGAGTCACCTAGTGCAG", "binding signal": "12500 fluorescence intensity (a.u.)"},
      {"sequence": "ATGTTCAATTTAATTGCTGTTTGTTACCTTTTGCATGGAGCGGAGTCACCTAGTGCAG", "binding signal": "18300 fluorescence intensity (a.u.)"},
      {"sequence": "AGCTGATGACTTTGATGTGCTGATGCTGATGCATACTGCTCGGAGTCACCTAGTGCAG", "binding signal": "17100 fluorescence intensity (a.u.)"},
      {"sequence": "TGTCTGATTTATTACCTTACAAAATGCGACAGCAGTAAATCGGAGTCACCTAGTGCAG", "binding signal": "10700 fluorescence intensity (a.u.)"},
      {"sequence": "AAACAAATTACAGATTCCGTTAGAAAACTACGAGATGAATCGGAGTCACCTAGTGCAG", "binding signal": "8040 fluorescence intensity (a.u.)"}
    ]}
  ]
}
